For test [1], the target named is T1, GFP-tagged Hs HELZ-N (residues M1-D1050) (human) (UniProt P42694).
T1 sequence: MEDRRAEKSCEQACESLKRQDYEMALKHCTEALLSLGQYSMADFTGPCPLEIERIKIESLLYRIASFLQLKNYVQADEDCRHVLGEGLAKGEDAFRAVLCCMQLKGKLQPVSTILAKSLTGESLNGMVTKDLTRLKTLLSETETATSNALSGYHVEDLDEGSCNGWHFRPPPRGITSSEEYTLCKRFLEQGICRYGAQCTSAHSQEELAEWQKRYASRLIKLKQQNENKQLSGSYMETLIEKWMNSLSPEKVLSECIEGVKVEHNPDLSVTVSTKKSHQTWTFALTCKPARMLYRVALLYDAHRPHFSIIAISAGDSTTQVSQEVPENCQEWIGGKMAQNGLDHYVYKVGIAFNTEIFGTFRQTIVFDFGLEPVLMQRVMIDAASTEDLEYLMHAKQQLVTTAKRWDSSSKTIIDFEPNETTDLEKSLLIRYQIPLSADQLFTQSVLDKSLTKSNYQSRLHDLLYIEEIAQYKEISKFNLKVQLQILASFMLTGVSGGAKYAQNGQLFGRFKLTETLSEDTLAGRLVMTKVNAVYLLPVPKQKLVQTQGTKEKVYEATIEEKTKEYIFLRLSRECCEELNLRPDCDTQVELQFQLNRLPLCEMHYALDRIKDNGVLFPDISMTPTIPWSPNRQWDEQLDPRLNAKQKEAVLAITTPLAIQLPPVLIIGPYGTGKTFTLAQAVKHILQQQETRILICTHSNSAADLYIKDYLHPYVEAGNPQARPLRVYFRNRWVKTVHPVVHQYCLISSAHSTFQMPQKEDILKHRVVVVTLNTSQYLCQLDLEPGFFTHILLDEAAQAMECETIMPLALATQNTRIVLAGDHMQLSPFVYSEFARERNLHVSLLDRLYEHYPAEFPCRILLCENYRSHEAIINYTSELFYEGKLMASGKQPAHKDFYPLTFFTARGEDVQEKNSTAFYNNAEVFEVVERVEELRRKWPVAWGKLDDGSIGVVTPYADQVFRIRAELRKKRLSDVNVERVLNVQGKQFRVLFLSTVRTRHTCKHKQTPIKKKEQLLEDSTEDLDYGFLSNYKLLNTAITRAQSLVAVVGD
In words: co-IP; GFP immunoprecipitation from HEK293T cells transfected with GFP-tagged HELZ (full-length, fragments or F1107V); endogenous NOT1, NOT3, PABPC1 detected by Western blot; lysates treated with RNase A before IP.

Protein sequences, listed by entry. Tags and fused reporters are not part of them.
UniProt A5YKK6: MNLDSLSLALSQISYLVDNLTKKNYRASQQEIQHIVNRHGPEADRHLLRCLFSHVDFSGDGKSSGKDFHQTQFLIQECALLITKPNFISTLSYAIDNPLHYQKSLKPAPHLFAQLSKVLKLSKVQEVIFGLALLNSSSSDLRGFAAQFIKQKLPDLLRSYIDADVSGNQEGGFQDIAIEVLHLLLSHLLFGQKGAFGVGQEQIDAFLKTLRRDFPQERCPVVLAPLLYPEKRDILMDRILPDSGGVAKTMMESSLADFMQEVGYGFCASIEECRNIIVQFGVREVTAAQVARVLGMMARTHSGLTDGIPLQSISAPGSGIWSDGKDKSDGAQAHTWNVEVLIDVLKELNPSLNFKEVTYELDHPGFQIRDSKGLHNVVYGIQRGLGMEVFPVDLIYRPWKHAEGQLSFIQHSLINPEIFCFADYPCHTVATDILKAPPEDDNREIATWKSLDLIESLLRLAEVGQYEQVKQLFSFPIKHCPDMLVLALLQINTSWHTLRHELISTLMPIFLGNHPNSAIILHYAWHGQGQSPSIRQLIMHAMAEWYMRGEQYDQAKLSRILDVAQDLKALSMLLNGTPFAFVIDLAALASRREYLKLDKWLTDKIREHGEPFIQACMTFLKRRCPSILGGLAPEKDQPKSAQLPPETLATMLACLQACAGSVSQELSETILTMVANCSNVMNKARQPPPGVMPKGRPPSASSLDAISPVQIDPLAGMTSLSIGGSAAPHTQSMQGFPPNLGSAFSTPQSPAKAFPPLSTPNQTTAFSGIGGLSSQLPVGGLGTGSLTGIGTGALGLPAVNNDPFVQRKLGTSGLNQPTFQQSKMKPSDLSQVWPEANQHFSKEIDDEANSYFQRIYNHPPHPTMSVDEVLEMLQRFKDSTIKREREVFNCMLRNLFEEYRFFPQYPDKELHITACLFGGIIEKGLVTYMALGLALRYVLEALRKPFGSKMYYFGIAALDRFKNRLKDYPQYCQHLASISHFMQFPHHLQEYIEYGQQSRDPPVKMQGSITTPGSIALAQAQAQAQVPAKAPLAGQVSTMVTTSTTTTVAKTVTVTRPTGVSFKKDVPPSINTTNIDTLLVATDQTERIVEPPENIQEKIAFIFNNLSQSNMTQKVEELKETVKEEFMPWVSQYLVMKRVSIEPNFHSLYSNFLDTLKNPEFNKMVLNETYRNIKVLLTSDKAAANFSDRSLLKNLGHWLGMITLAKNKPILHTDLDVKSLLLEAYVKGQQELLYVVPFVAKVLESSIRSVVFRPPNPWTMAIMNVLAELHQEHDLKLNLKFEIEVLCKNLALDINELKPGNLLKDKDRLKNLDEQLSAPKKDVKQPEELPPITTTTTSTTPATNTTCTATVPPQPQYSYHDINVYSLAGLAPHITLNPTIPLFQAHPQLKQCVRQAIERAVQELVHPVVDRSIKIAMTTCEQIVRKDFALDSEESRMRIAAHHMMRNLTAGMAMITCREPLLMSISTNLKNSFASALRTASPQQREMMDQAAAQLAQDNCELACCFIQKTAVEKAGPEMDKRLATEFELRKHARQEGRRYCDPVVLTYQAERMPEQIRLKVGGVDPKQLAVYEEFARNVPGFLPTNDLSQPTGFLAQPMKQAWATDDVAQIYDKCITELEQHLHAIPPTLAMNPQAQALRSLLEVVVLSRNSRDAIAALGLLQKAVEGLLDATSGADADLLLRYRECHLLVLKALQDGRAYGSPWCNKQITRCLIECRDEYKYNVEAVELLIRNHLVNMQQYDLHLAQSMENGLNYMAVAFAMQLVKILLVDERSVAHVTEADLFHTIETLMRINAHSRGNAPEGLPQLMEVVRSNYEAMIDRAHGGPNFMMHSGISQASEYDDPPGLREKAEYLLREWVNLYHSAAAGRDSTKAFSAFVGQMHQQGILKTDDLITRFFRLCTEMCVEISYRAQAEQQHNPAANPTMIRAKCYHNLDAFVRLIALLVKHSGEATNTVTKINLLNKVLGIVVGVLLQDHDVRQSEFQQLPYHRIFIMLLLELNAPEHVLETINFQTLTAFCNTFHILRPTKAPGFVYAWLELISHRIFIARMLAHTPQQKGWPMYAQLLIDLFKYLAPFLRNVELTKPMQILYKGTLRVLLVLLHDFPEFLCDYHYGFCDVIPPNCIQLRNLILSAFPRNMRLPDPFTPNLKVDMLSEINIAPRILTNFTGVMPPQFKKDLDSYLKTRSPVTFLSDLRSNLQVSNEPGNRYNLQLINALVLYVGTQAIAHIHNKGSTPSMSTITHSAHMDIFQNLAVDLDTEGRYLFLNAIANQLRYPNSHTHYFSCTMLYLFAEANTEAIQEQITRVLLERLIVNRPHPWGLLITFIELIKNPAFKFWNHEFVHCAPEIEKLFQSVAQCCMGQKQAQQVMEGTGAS
UniProt O75175: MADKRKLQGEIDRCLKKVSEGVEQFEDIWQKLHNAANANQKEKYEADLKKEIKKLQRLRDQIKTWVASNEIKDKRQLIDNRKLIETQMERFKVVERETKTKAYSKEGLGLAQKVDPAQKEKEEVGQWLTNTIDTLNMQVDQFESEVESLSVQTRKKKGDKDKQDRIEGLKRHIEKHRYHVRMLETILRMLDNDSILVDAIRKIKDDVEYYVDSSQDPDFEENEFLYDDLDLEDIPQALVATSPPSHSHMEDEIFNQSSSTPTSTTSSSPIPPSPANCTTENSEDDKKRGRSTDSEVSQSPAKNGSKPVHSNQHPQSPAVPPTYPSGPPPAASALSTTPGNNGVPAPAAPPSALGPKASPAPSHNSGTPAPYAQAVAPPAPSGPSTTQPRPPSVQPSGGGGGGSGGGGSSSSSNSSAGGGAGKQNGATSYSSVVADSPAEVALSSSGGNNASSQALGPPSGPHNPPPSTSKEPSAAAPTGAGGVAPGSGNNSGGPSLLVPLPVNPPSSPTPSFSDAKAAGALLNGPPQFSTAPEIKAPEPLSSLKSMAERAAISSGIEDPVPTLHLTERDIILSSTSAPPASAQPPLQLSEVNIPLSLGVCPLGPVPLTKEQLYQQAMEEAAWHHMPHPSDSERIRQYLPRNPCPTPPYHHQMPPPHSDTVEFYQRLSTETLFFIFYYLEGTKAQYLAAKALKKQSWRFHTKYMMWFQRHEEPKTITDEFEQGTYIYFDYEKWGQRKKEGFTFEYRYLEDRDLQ

The target of test [2] is T2, GFP-tagged Hs HELZ-C (residues P1051-K1942) (human) (UniProt P42694).
T2 sequence: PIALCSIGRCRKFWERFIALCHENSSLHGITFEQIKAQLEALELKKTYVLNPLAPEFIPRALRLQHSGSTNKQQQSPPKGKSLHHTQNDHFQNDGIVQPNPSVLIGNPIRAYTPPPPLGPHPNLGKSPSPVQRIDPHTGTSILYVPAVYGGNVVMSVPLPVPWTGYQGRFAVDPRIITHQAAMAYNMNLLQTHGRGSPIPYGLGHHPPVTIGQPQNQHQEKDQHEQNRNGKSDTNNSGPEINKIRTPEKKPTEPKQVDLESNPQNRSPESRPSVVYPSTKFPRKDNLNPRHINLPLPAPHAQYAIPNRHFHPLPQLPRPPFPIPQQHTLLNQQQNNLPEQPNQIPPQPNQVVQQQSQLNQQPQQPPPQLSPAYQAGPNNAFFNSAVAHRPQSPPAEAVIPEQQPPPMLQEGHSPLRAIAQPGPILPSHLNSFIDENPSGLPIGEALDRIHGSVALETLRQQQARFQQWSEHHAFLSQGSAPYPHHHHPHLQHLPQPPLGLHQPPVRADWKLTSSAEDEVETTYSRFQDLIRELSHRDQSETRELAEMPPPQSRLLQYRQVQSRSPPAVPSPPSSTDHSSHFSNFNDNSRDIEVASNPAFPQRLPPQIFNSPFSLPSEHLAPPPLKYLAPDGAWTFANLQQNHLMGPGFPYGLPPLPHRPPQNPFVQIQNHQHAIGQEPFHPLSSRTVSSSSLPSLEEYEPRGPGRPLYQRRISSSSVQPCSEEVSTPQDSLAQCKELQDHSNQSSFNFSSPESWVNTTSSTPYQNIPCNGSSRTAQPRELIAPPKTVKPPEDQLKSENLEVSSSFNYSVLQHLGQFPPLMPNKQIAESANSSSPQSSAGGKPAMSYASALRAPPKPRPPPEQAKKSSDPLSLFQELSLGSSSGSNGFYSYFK
The test is described as above.

The target of test [3] is GFP-tagged Hs HELZ (helicase with zinc-finger), full-length (human) (UniProt P42694). The test is described as above.
For test [4] the target is unchanged. In words: co-IP; GFP immunoprecipitation from HEK293T cells co-transfected with GFP-Hs HELZ (bait) and an HA-tagged protein; lysates treated with RNase A before IP; Western blot. (A western blot detects proteins with antibodies after separation by electrophoresis.)

Results are given in words; binding and its absence hold for the method and conditions named. Binding seen in cells or lysates may run through a third protein. Some entries that bind do so weakly or less than the wild type. For some assays here: Sequences can lack the tags named with a protein.

In the case of “endogenous NOT1 (CCR4–NOT complex scaffold protein) (from UniProt A5YKK6 1-2376)”, the binding entry in test [1] is on record as “no binding”; in test [2] it was “binds”; in test [3], “binds”.

In the case of “endogenous NOT3 (CCR4–NOT complex protein) (from UniProt O75175 1-753)”, the binding result was “no binding” in test [1], “binds” in test [2] and “binds” in test [3].

B1: HA-tagged Hs PatL1 (protein, UniProt Q86TB9 1-770)
chain: MFRYESLEDCPLDEDEDAFQGLGEEDEEIDQFNDDTFGSGAVDDDWQEAHERLAELEEKLPVAVNEQTGNGERDEMDLLGDHEENLAERLSKMVIENELEDPAIMRAVQTRPVLQPQPGSLNSSIWDGSEVLRRIRGPLLAQEMPTVSVLEYALPQRPPQGPEDDRDLSERALPRRSTSPIIGSPPVRAVPIGTPPKQMAVPSFTQQILCPKPVHVRPPMPPRYPAPYGERMSPNQLCSVPNSSLLGHPFPPSVPPVLSPLQRAQLLGGAQLQPGRMSPSQFARVPGFVGSPLAAMNPKLLQGRVGQMLPPAPGFRAFFSAPPSATPPPQQHPPGPGPHLQNLRSQAPMFRPDTTHLHPQHRRLLHQRQQQNRSQHRNLNGAGDRGSHRSSHQDHLRKDPYANLMLQREKDWVSKIQMMQLQSTDPYLDDFYYQNYFEKLEKLSAAEEIQGDGPKKERTKLITPQVAKLEHAYKPVQFEGSLGKLTVSSVNNPRKMIDAVVTSRSEDDETKEKQVRDKRRKTLVIIEKTYSLLLDVEDYERRYLLSLEEERPALMDDRKHKICSMYDNLRGKLPGQERPSDDHFVQIMCIRKGKRMVARILPFLSTEQAADILMTTARNLPFLIKKDAQDEVLPCLLSPFSLLLYHLPSVSITSLLRQLMNLPQSAATPALSNPHLTAVLQNKFGLSLLLILLSRGEDLQSSDPATESTQNNQWTEVMFMATRELLRIPQAALAKPISIPTNLVSLFSRYVDRQKLNLLETKLQLVQGIR
Consider B1, for which the binding entry in test [4] is “binds”.

B2: HA-tagged Hs EDC4 (protein, UniProt Q6P2E9 1-1401)
chain: MASCASIDIEDATQHLRDILKLDRPAGGPSAESPRPSSAYNGDLNGLLVPDPLCSGDSTSANKTGLRTMPPINLQEKQVICLSGDDSSTCIGILAKEVEIVASSDSSISSKARGSNKVKIQPVAKYDWEQKYYYGNLIAVSNSFLAYAIRAANNGSAMVRVISVSTSERTLLKGFTGSVADLAFAHLNSPQLACLDEAGNLFVWRLALVNGKIQEEILVHIRQPEGTPLNHFRRIIWCPFIPEESEDCCEESSPTVALLHEDRAEVWDLDMLRSSHSTWPVDVSQIKQGFIVVKGHSTCLSEGALSPDGTVLATASHDGYVKFWQIYIEGQDEPRCLHEWKPHDGRPLSCLLFCDNHKKQDPDVPFWRFLITGADQNRELKMWCTVSWTCLQTIRFSPDIFSSVSVPPSLKVCLDLSAEYLILSDVQRKVLYVMELLQNQEEGHACFSSISEFLLTHPVLSFGIQVVSRCRLRHTEVLPAEEENDSLGADGTHGAGAMESAAGVLIKLFCVHTKALQDVQIRFQPQLNPDVVAPLPTHTAHEDFTFGESRPELGSEGLGSAAHGSQPDLRRIVELPAPADFLSLSSETKPKLMTPDAFMTPSASLQQITASPSSSSSGSSSSSSSSSSSLTAVSAMSSTSAVDPSLTRPPEELTLSPKLQLDGSLTMSSSGSLQASPRGLLPGLLPAPADKLTPKGPGQVPTATSALSLELQEVEPLGLPQASPSRTRSPDVISSASTALSQDIPEIASEALSRGFGSSAPEGLEPDSMASAASALHLLSPRPRPGPELGPQLGLDGGPGDGDRHNTPSLLEAALTQEASTPDSQVWPTAPDITRETCSTLAESPRNGLQEKHKSLAFHRPPYHLLQQRDSQDASAEQSDHDDEVASLASASGGFGTKVPAPRLPAKDWKTKGSPRTSPKLKRKSKKDDGDAAMGSRLTEHQVAEPPEDWPALIWQQQRELAELRHSQEELLQRLCTQLEGLQSTVTGHVERALETRHEQEQRRLERALAEGQQRGGQLQEQLTQQLSQALSSAVAGRLERSIRDEIKKTVPPCVSRSLEPMAGQLSNSVATKLTAVEGSMKENISKLLKSKNLTDAIARAAADTLQGPMQAAYREAFQSVVLPAFEKSCQAMFQQINDSFRLGTQEYLQQLESHMKSRKAREQEAREPVLAQLRGLVSTLQSATEQMAATVAGSVRAEVQHQLHVAVGSLQESILAQVQRIVKGEVSVALKEQQAAVTSSIMQAMRSAAGTPVPSAHLDCQAQQAHILQLLQQGHLNQAFQQALTAADLNLVLYVCETVDPAQVFGQPPCPLSQPVLLSLIQQLASDLGTRTDLKLSYLEEAVMHLDHSDPITRDHMGSVMAQVRQKLFQFLQAEPHNSLGKAARRLSLMLHGLVTPSLP
For B2, the binding result in test [4] is “binds”.
